# This is one part of the list. At the low end of the ranking the order means little. The protein was read in a cell extract, so binding may be indirect.
# Target: T1, HNF4alpha8 (COS-7 nuclear extract) (UniProt P41235-5)
# T1 sequence: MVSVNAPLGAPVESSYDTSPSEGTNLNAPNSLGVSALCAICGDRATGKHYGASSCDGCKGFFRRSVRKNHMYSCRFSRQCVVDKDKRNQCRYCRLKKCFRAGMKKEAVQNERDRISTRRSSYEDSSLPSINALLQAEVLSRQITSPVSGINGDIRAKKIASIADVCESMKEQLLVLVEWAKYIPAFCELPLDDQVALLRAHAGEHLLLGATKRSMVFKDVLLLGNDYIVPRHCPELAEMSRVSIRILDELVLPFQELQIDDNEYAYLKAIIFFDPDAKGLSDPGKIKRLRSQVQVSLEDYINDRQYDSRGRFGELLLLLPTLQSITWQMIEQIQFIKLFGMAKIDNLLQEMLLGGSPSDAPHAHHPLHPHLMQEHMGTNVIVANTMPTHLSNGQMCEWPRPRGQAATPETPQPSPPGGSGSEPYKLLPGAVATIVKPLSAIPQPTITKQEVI
# Test: protein-binding microarray
# Conditions: COS-7 nuclear extract on double-stranded Agilent 4x180k PBM; binding buffer, salt, pH and temperature not given; high values mean tight binding; double strand, one strand shown; sequences stand for … in …GCCTAGGGAGATTAGAGTATCGGTCGA
row,Sequence,binding signal (log2 normalized intensity)
1,GAACAGTCCTACAAATGATCAAAGGTTGGT,3.74
2,TCTGCCATTGTCGTGGTTGTAGAAAGCAGC,0.216
3,TTTTCTTGGACTTTGGTCATCCTTTACTTT,6.91
4,CACCTGGTTCCTTGCAAGATAAGGGTCAGC,2.94
5,ACCCTGGTCTTTGCCCTTTCCTAGACGTAA,2.89
6,ATGCCTGATAAAGGGGGCAAAGGGCATGGG,5.57
7,TGGGCCTGGCTGAGCCTGGGCCGCCAAACT,-1.22
8,CCTTGGCCTGCTCCTTGGAAGTCGCCGTGA,-1.26
9,AGCTGCTCTAAGAATGCAGAAACAAATACA,-1.31
10,GTAGACAATAGGGCAGAGGAAACAAACAGA,-1.39
11,AAGTCCAACAGGGTTAAAAGCAAACCAAAA,-1.29
12,TCATCTGGTGGCTTGAGTTGGAGAAGAGCA,-0.0434
13,GCAGTGGGACAAAGGTCACAGGAAAGGGAC,4.96
14,ATAGTGATAAGGATCTAAGAACTAACATGG,-1.01
15,TTCGGGTTTTCGCAGCAAGTTACACAAGTA,-1.32
16,TAAGTATAAAGTTAAGACCTACATTAAGAC,-1.41
17,TTACCTGAAATGAGACCAAAGTATTTAACC,-0.349
18,GACACCAAACAGACCTCCCCCAACTTACTT,3.06
19,GCTGTTTCCAAATATCTGACTGTAAATTTG,0.196
20,GGTGACAGTATCAAAGTCCCCAGATAAGAC,3.02
21,TCTTGGAATGTTGAACCTTTCTTTGTCTTT,2.31
22,AATGGTGGGATAGGAGACATGAAGGACATA,-1.26
23,AGGCTCTTAGCAGAAGCCCTCCTGGACATT,2.42
24,GAGCCCTCCCCTTGTCTGATAAGATTCAGA,3.23

row,Sequence,binding signal (log2 normalized intensity)
1,TCACCACTTTTGCAATGTTTCCAAACCCCT,2.74
2,TATGTGGCATTTCAAAGGAGGAGGCCTAGG,-1.17
3,AGACACAGACTCAAGTGAGGAAGGAACTGG,-1.22
4,CTCTCCCCACCCCCAAATCCCCTTCAAGTC,5.6
5,CTTCAAACGGGAAGCGAGGCCTCATTGGCC,-1.28
6,TTCAACTGATAAGAAGGGGCCTAGCTTGTA,-1.51
7,ACACGTGGGACCATGAGTACCAGGTCAAAA,1.69
8,CCTTCCAAAGTCCACCTCAACCTCCCCCTG,5.26
9,CAGGGTGAAATTCAACAGAACTGTTTGAGG,-1.33
10,TGTAGAATTATCCAGATCAAGGATTTTTTC,-0.774
11,CACATCCAGATGAGAGCAGAGGCTGGGGCC,-1.25
12,TAACTATGGTCACGCGGCCAAAATGTTCAG,-1.04
13,TGCTCATAATGCCAGGCAGGAAGGAGCCTG,-1.32
14,TTTAGAGGATTTACTTATACAGCGTCTAAG,-1.39
15,AGAGTCATCACAATAGGGAAACAGCGAGAG,-1.28
16,TGCCCTCTGTCCCATGGTGTACAAGGAGTC,1.67
17,TATCACCTGCCAGCTGTTATGAGTCTGTTG,1.35
18,TAAGCACCCAGAGCCCCACCGTTGTGTAAT,2.32
19,CAAGACCTCTTTGCGGATAGATATGTTGAA,1.44
20,CACCAGGGCCTCTGAGATAAGGGTTCAAAC,2.57
21,AGAGACAACCAAGGTTGCAGAGTGTCCCAC,-0.934
22,TTACAAAGTATGTTCACAAGGAATTGGAAT,1.46
23,GGAGAGGCAAGTATGGTAAGGTCGACCTTT,7.03
24,TTTCCCCCTATTTCCCTCTGTGCCCGAGCT,4.05

row,Sequence,binding signal (log2 normalized intensity)
1,TTGTAGTGTCATTGTTATTTACGGTGGGCA,2.11
2,GAGGTTGAATTCCAAAGGTTATTTTCTTTA,3.54
3,AGAGGACTTCCAAAGCCCCTTTCCACTCTA,0.748
4,TGACTTTCTTCCTATGGGATCAAAGTGCGA,5.69
5,TACAGGGAGCTATTCTTTAACCAGAGTCTA,-0.822
6,CCATCCCAGGTCCACAGTGCACATTCCAGA,0.945
7,CTGACAAGTATCTCGGTCAAACCTTTGACC,6.35
8,GCTCCCGCCTGACCTGGCCCCTGAGGGTGC,1.61
9,TAGCCAGACCTGTTCCTCTGCCCCTCATCG,1.81
10,AGATAATCCCCAGCCACGCTCCTCTTATCA,0.137
11,GCCTGCTCCTTGGAAGTCGCCGTGAGGTTA,0.487
12,TCAGATTGTAGCCTCATTTCACCTTTGGTC,6.43
13,GACTCTGCAGCCGAACCGGCACGGTTTCGT,-1.28
14,GTGTGGGACTTGAGGTCTTATCTTTAGGCC,0.638
15,TCCACTGTGCAGTGGGCCTTTAGAAGTGTA,0.172
16,CTCTTTGGTGCAAAGGTCAGGACAAGGCTC,4.73
17,CCCTGCAGTCCTCTGCTTATCTGGCCTGCT,-1.35
18,AACTGGAAAATCAAAGACTCAGATGAGTTT,-1.32
19,GGAATCTTGCCCTGTCGCCCAGGCTGGAAT,1.58
20,TTCAATGCTCCAGTAAAAGCTCTACCTGAC,-1.28
21,AGACAGCTGCATTTGTCCGGGTATGTTCTT,1.67
22,GTGTTGGAGCATTAGTTGACCATTGTGTTA,2.2
23,ATGACCTTTGAGCAATAGGAAATGGGAGGG,3.35
24,GGTCTAATTCCCAAGGGTATGTTTGTGATA,1.52

row,Sequence,binding signal (log2 normalized intensity)
1,GTCCCTGCTCCACGCAAACACAAAAGGATC,-1.45
2,TCAGAGCCTGGCTGGCCTGGCAAATCTCTA,-1.16
3,TTTTTAGTGCAAGCAAAATTCCTGGGTTGC,-1
4,AAGCTGCAATGGCTTCACAATTCCTAGCAA,-1.25
5,GAGAGTTAGTTCTGCAAACACCCCTCCCCC,5.44
6,CTGCCAGGAGGGGACTTCAAAGGCTCCCCT,-1.3
7,GTTTGCTAATATCTGATGTTAAATCCACGA,0.0853
8,TTCTGGTGATCAAACAAAAGGGACAAAGGT,1.51
9,AACCAAGATTTACATCCTATCCTGGCTTCA,-1.1
10,TGGACATACCTCTAATCATAAAGCTGGGAA,-0.0247
11,TTAGATAGTAGCCCTTTGTATCTTTTAAGA,0.942
12,ACACACACATTGCAGTATGCCCCCCCACCC,6.27
13,ACTGTTCAGTTCCTATTTCAACATCCTCTC,-0.717
14,CAGGAGAAGCAGAACAGGTATTTCAAGGTT,-0.868
15,AATTGTGTCACTCCCCAGGAATGTGCTCCC,2.54
16,GCAGTGAGTAACCTTGAGGAACTGAGTAAG,-1.43
17,TGGTATGCTTAAGTGGCTCACCCAAGTCAC,-1.28
18,TACTGACCAAATGGGAACATTCCTCAGGGA,-1.31
19,CAGTCTAAAGTCTGATCCCAATTTATCTTT,2.01
20,CATCCTCAGGTAAAGATCAACCATCAAGAT,-1.32
21,CCAGTGGGGGGAAGCTCTGTCACTTCTGGT,-0.841

# Reference: article PMC10726135
